According to the supplement of paper PMC8728848:
This is one part of the list.

Experiments:
Assay in all cases: glycan array binding signal (z-score within array); higher = stronger binding
Conditions in all cases: glycan notation: IUPAC condensed, linker removed
[1] = molecular target: Fuc(a1-2)Gal
Summary of the method: (§1)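 From the Consortium for Functional Glycomics database, 3228 arrays were curated, keeping only those whose protein sequence was available. Binding is given as a within-array Z-score averaged across arrays sharing a protein sequence and across linkers. Negative Z-scores can be read as non-binding.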

[2] = molecular target: Fuc(a1-2)Gal(b1-3)GalNAc
Summary of the method: as §1

[3] = molecular target: Fuc(a1-2)Gal(b1-3)GalNAc(a1-3)[Fuc(a1-2)]Gal(b1-4)Glc
Summary of the method: as §1

[4] = molecular target: Fuc(a1-2)Gal(b1-3)GalNAc(a1-3)[Fuc(a1-2)]Gal(b1-4)GlcNAc
Summary of the method: as §1

[5] = molecular target: Fuc(a1-2)Gal(b1-3)GalNAc(b1-3)Gal
Summary of the method: as §1

[6] = molecular target: Fuc(a1-2)Gal(b1-3)GalNAc(b1-3)Gal(a1-4)Gal(b1-4)Glc
Summary of the method: as §1

[7] = molecular target: Fuc(a1-2)Gal(b1-3)GalNAc(b1-4)[Neu5Ac(a2-3)]Gal(b1-4)Glc
Summary of the method: as §1

[8] = molecular target: Fuc(a1-2)Gal(b1-3)GlcNAc
Summary of the method: as §1

[9] = molecular target: Fuc(a1-2)Gal(b1-3)GlcNAc(b1-2)Man(a1-3)[Fuc(a1-2)Gal(b1-3)GlcNAc(b1-2)Man(a1-6)]Man(b1-4)GlcNAc(b1-4)GlcNAc
Summary of the method: as §1

[10] = molecular target: Fuc(a1-2)Gal(b1-3)GlcNAc(b1-2)Man(a1-3)[Fuc(a1-2)Gal(b1-3)GlcNAc(b1-2)Man(a1-6)]Man(b1-4)GlcNAc(b1-4)[Fuc(a1-6)]GlcNAc
Summary of the method: as §1

[11] = molecular target: Fuc(a1-2)Gal(b1-3)GlcNAc(b1-3)Gal(b1-4)Glc
Summary of the method: as §1

[12] = molecular target: Fuc(a1-2)Gal(b1-3)GlcNAc(b1-3)GalNAc
Summary of the method: as §1

[13] = molecular target: Fuc(a1-2)Gal(b1-3)GlcNAc(b1-3)[Fuc(a1-2)Gal(b1-3)GlcNAc(b1-6)]GalNAc
Summary of the method: as §1

[14] = molecular target: Fuc(a1-2)Gal(b1-3)GlcNAc(b1-3)[Gal(b1-4)GlcNAc(b1-6)]Gal(b1-4)Glc
Summary of the method: as §1

[15] = molecular target: Fuc(a1-2)Gal(b1-3)GlcNAc(b1-3)[Neu5Ac(a2-6)Gal(b1-4)GlcNAc(b1-6)]Gal(b1-4)Glc
Summary of the method: as §1

[16] = molecular target: Fuc(a1-2)Gal(b1-3)GlcNAc6S
Summary of the method: as §1

[17] = molecular target: Fuc(a1-2)Gal(b1-3)[Fuc(a1-4)]GlcNAc
Summary of the method: as §1

[18] = molecular target: Fuc(a1-2)Gal(b1-3)[Fuc(a1-4)]GlcNAc(b1-2)Man(a1-3)[Fuc(a1-2)Gal(b1-3)[Fuc(a1-4)]GlcNAc(b1-2)Man(a1-3)]Man(b1-4)GlcNAc(b1-4)GlcNAc
Summary of the method: as §1

[19] = molecular target: Fuc(a1-2)Gal(b1-3)[Fuc(a1-4)]GlcNAc(b1-2)Man(a1-3)[Fuc(a1-2)Gal(b1-3)[Fuc(a1-4)]GlcNAc(b1-2)Man(a1-6)]Man(b1-4)GlcNAc(b1-4)[Fuc(a1-6)]GlcNAc(b1-4)[Fuc(a1-6)]GlcNAc
Summary of the method: as §1

[20] = molecular target: Fuc(a1-2)Gal(b1-3)[Fuc(a1-4)]GlcNAc(b1-3)[Fuc(a1-3)[Gal(b1-4)]GlcNAc(b1-6)]Gal(b1-4)Glc
Summary of the method: as §1

[21] = molecular target: Fuc(a1-2)Gal(b1-3)[Fuc(a1-4)]GlcNAc(b1-3)[Gal(b1-4)GlcNAc(b1-6)]Gal(b1-4)Glc
Summary of the method: as §1

[22] = molecular target: Fuc(a1-2)Gal(b1-4)Fuc(a1-3)]GlcNAc(b1-2)Man(a1-3)[Fuc(a1-2)Gal(b1-4)[Fuc(a1-3)]GlcNAc(b1-2)Man(a1-6)]Man(b1-4)GlcNAc(b1-4)GlcNAc
Summary of the method: as §1

[23] = molecular target: Fuc(a1-2)Gal(b1-4)Glc
Summary of the method: as §1

[24] = molecular target: Fuc(a1-2)Gal(b1-4)Glc6S
Summary of the method: as §1

[25] = molecular target: Fuc(a1-2)Gal(b1-4)GlcNAc
Summary of the method: as §1

[26] = molecular target: Fuc(a1-2)Gal(b1-4)GlcNAc(b1-2)Man
Summary of the method: as §1

[27] = molecular target: Fuc(a1-2)Gal(b1-4)GlcNAc(b1-2)Man(a1-3)[Fuc(a1-2)Gal(b1-4)GlcNAc(b1-2)Man(a1-6)]Man(b1-4)GlcNAc(b1-4)GlcNAc
Summary of the method: as §1

[28] = molecular target: Fuc(a1-2)Gal(b1-4)GlcNAc(b1-2)Man(a1-3)[Fuc(a1-2)Gal(b1-4)GlcNAc(b1-2)Man(a1-6)]Man(b1-4)GlcNAc(b1-4)[Fuc(a1-6)]GlcNAc
Summary of the method: as §1

[29] = molecular target: Fuc(a1-2)Gal(b1-4)GlcNAc(b1-2)[Fuc(a1-2)Gal(b1-4)GlcNAc(b1-4)]Man(a1-3)[Fuc(a1-2)Gal(b1-4)GlcNAc(b1-2)Man(a1-6)]Man(b1-4)GlcNAc(b1-4)GlcNAc
Summary of the method: as §1

[30] = molecular target: Fuc(a1-2)Gal(b1-4)GlcNAc(b1-3)Gal(b1-4)GlcNAc
Summary of the method: as §1

B1: SGC, Q9M345 (protein)
chain: QNLNFTYNGFHPPLTDISLQGLATVTPNGLLKLTNTSVQKTGHAFCTERIRFKDSQNGNVSSFSTTFVFAIHSQIPTLSGHGIAFVVAPTLGLPFALPSQYIGLFNISNNGNDTNHIFAVEFDTIQSSEFGDPNDNHVGIDLNGLRSANYSTAGYRDDHDKFQNLSLISRKRIQVWIDYDNRSHRIDVTVAPFDSDKPRKPLVSYVRDLSSILLEDMYVGFSSATGSVLSEHFLVGWSFRLNGEAPMLSLSKLPKLPRFEPRRIS
glycan array binding signal (z-score) [1]: -0.354 | glycan array binding signal (z-score) [2]: -0.316 | glycan array binding signal (z-score) [3]: -0.382 | glycan array binding signal (z-score) [4]: -0.366 | glycan array binding signal (z-score) [5]: -0.331 | glycan array binding signal (z-score) [6]: -0.413 | glycan array binding signal (z-score) [7]: -0.353 | glycan array binding signal (z-score) [8]: -0.326 | glycan array binding signal (z-score) [9]: 3.64 | glycan array binding signal (z-score) [10]: -0.306 | glycan array binding signal (z-score) [11]: -0.394 | glycan array binding signal (z-score) [12]: -0.34 | glycan array binding signal (z-score) [13]: 3.16 | glycan array binding signal (z-score) [14]: -0.27 | glycan array binding signal (z-score) [15]: -0.432 | glycan array binding signal (z-score) [16]: -0.376 | glycan array binding signal (z-score) [17]: -0.34 | glycan array binding signal (z-score) [18]: -0.093 | glycan array binding signal (z-score) [19]: -0.292 | glycan array binding signal (z-score) [20]: -0.38 | glycan array binding signal (z-score) [21]: -0.345 | glycan array binding signal (z-score) [22]: 1.05 | glycan array binding signal (z-score) [23]: -0.336 | glycan array binding signal (z-score) [24]: -0.356 | glycan array binding signal (z-score) [25]: -0.381 | glycan array binding signal (z-score) [26]: -0.348 | glycan array binding signal (z-score) [27]: 0.695 | glycan array binding signal (z-score) [28]: -0.364 | glycan array binding signal (z-score) [29]: -0.321 | glycan array binding signal (z-score) [30]: -0.346
